# Test results from PubChem BioAssay AID686979 (National Center for Advancing Translational Sciences (NCATS), 2013).
# The campaign covered roughly 420,000 compounds. About 50,000 (12%) were called active. The inconclusive results got no clear call from the source; some entries with a clear call stand among them for comparison. Calls follow the shape of the dose curve; as a rule, active = well fitted inhibition curve with a large enough effect; inconclusive = small, poorly fitted or top-dose-only effect; inactive = flat fitted curve, though single readings scatter. No potency is given beside an inconclusive call; the fits are too rough.
# Test: qHTS for Inhibitors of human tyrosyl-DNA phosphodiesterase 1 (TDP1): qHTS in cells in presence of CPT; also: nearly all actives have a fitted effect of over 55% in size
# Settings: chicken DT40 Tdp1-/-;hTDP1 cells + 20 nM CPT, ATP luminescence, 48 h; series mostly up to 46.2 µM
# How it was run: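 Chicken DT40 Tdp1-/- cells stably complemented with human TDP1 were seeded at 400 cells/well in medium containing 20 nM camptothecin, exposed to pin-transferred compounds, and grown at 37 °C for at least 48 hr. Viability was read as ATP luminescence.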
# Potency is read from the fitted curve at half-maximal effect; tags tell the direction and shape of the fitted curve.
row,Compound,Potency
1,COc1ccc(CCC(C)NCC2CCCCC2)cc1 (configuration not stated),"inconclusive [inhibitor, single point]"
2,Cc1cccc2sc(NC(=O)c3ccc(NS(=O)(=O)c4cccs4)cc3)nc12,"inconclusive [inhibitor, single point]"
3,Cc1ccc(N(CC(=O)Nc2ccc(OC(F)(F)F)cc2)S(=O)(=O)c2c(C)noc2C)cc1,active: 20.6 µM
4,OC(c1ccc(F)c(F)c1)c1ncc(-c2ccccc2F)[nH]1 (configuration not stated),"inconclusive [inhibitor, partial curve]"
5,Cc1cc(C)nc(N(C#N)CN2C(=O)c3ccccc3S2(=O)=O)n1,"inconclusive [inhibitor, single point]"
6,C/C(=C\c1ccccc1)CN1CCC(C(=O)N2CCCC(C)C2)CC1 (configuration not stated),"inconclusive [inhibitor, single point]"
7,CS(=O)(=O)Oc1ccc2c(c1)O/C(=C\C=C\c1ccccc1)C2=O,"inconclusive [inhibitor, single point]"
8,CC(C)Oc1cccc(-n2c(CCc3c[nH]c4ccc(Br)cc34)nc3ccccc3c2=O)c1,"inconclusive [inhibitor, single point]"
9,Cc1cccc(NC(=O)C2CCCN(S(=O)(=O)c3cccc4cccnc34)C2)c1 (configuration not stated),active: 18.4 µM
10,Cc1nnsc1C(=O)Nc1ccc(S(=O)(=O)N2CCC(C)CC2)cc1,"inconclusive [inhibitor, partial curve, poor fit]"
11,CN(CCCC1CCCC1)C(=O)c1cc(COc2ccc(F)c(F)c2)on1,"inconclusive [inhibitor, single point]"
12,COCCn1c(SCC(=O)c2c[nH]c3ccccc23)nc2cc(C(=O)NCC(C)C)ccc2c1=O,"inconclusive [inhibitor, full curve]"
13,OC(CCN1CCOCC1)(c1ccc(Cl)cc1)C1CCCCC1 (configuration not stated),"inconclusive [inhibitor, single point]"
14,COc1cccc(N2CCN(C(=O)c3nc(-c4ccc(Cl)cc4)n4c3CCCCC4)CC2)c1,"inconclusive [inhibitor, single point]"
15,CC(=O)C1=C(O)CC(c2ccccc2)CC1=NCCc1c(C)[nH]c2ccccc12 (configuration not stated),"inconclusive [inhibitor, partial curve, poor fit]"
16,COc1cc(NC(=O)CSc2nc3nc(C)c(Cc4ccccc4)c(C)n3n2)cc(OC)c1OC,active: 20.6 µM
17,CC(C)N(C(=O)[C@H]1C[C@H](CC(=O)NCCN2CCOCC2)C(=O)N2CCc3c([nH]c4cc(-c5ccco5)ccc34)[C@]12C)C(C)C,"inconclusive [inhibitor, single point]"
